Experiment [1] addresses T1, LILRB2 (c-terminally biotinylated, BPS Bioscience #100335) (UniProt Q8N423 22-460, limits assumed, C-terminal biotin).
T1 construct: It was immobilised on streptavidin plates for ELISA and on streptavidin biosensors for BLI; also called biotinylated LILRB2; innate immune receptor LILRB2
Briefly: ELISA; biotinylated LILRB2 on streptavidin plate, fusion protein titrated, APC anti-human IgG detection.

Experiment [2] deals with T1, LILRB2 (c-terminally biotinylated, BPS …). Briefly: BLI (Octet Red 96e); biotinylated LILRB2 on streptavidin biosensors, fusion protein as analyte, bivalent analyte (2:1) model.

Experimental findings from patent EP4130029A1 (ImmunOs Therapeutics AG, dated 2023) are described below.

Numbering of substitutions follows the chain as printed. Names may count otherwise.

T1 sequence (Q8N423 22-460 limits assumed): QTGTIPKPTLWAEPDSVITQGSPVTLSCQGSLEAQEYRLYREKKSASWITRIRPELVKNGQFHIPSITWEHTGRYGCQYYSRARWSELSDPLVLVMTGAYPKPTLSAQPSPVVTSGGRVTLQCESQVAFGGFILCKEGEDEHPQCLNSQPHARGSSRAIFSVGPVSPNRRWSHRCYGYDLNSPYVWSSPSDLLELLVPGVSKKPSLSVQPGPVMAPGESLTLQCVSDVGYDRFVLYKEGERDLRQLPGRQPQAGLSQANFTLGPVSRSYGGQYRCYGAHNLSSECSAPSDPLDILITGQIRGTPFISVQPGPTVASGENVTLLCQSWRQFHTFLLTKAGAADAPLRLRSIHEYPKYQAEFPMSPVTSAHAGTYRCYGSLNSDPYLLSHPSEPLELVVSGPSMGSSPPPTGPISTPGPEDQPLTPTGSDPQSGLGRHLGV

B1: HLA-B57.OC (open conformer fusion protein of the natural HLA-B57:01:01 heavy chain extracellular domain and IgG4 Fc, lacking β2m) (Fc fusion)
MHC heavy: GSHSMRYFYTAMSRPGRGEPRFIAVGYVDDTQFVRFDSDAASPRMAPRAPWIEQEGPEYWDGETRNMKASAQTYRENLRIALRYYNQSEAGSHIIQVMYGCDVGPDGRLLRGHDQSAYDGKDYIALNEDLSSWTAADTAAQITQRKWEAARVAEQLRAYLEGLCVEWLRRYLENGKETLQRADPPKTHVTHHPISDHEATLRCWALGFYPAEITLTWQRDGEDQTQDTELVETRPAGDRTFQKWAAVVVPSGEEQRYTCHVQHEGLPKPLTLRWEPSSQSGGGGSGGGGS[here human IgG4 Fc with S228P (EU numbers) without letters]
notes: also called HLA-B57-Fc; natural HLA-B57-derived fusion protein control
Turning to B1, it took 21 nM to reach a half-maximal effect in experiment [1] (EC50).

B2: HLA-B57(A46E/V97R).OC (open conformer variant HLA-B57:01 extracellular domain A46E V97R IgG4 fusion protein, lacking β2m) (Fc fusion)
MHC heavy: B1 MHC heavy with A46E, V97R
notes: β2m was removed under acidic conditions by size exclusion chromatography; also called HLA-B57^(A46E/V97R)-Fc
In the case of B2, the Kd in experiment [2] worked out at 20.3 nM. The molecule also had an EC50 in experiment [1] of 8.3 nM.
